# The shares of active, inactive and inconclusive entries below differ from those in the screen. For some of these results: No potency is given beside an inconclusive call; the fits are too rough. The source made the active and inactive calls. Calls come from the whole dose curve; as a rule, active = well fitted curve in the direction sought with a large enough effect; inconclusive = small, poorly fitted or top-dose-only effect, or another doubt; inactive = no such curve, though single readings can be large; an effect the other way counts as inactive or inconclusive.
# Experiments:
# [1] = qHTS for Inhibitors of Plasmodium falciparum (DD2) proliferation (AID 504314); note: potency is the fitted concentration of half-maximal effect;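 for activity, negative = inhibition: parasite DNA measured by SYBR Green fluorescence after red cell lysis; plate controls were DMSO vehicle for no effect and artemisinin wells for full effect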; conditions: P. falciparum Dd2 in erythrocytes, SYBR Green growth, 72 h; activity, negative = inhibition: at 6.11 µM (top of the series)
# Method in brief: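 P. falciparum Dd2 is grown in erythrocytes with test compound for 72 h at 37C under 5% CO2. Growth is scored by SYBR Green I fluorescence after detergent lysis, relative to artemisinin (0.29 uM) and DMSO controls.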
# [2] = qHTS for Inhibitors of Plasmodium falciparum (HB3) proliferation (AID 504318); note: nearly all actives have a fitted effect of over 60% in size; note: potency is the fitted concentration of half-maximal effect;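 for activity change, negative = inhibition: 0% = DMSO vehicle and -100% = artemisinin control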; conditions: P. falciparum HB3 in erythrocytes, SYBR Green DNA, 72 h; activity change, negative = inhibition: at 7.21 µM (top of the series)
# Method in brief: (§1)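 Parasite growth measured as SYBR Green DNA fluorescence (ex 485, em 535 nm) after overnight lysis following 72 h culture at 37 °C, 0.3% parasitemia, 2.5% hematocrit. Values normalized against DMSO and 0.29 uM artemisinin controls, with plate-stack correction.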
# [3] = qHTS for Inhibitors of Plasmodium falciparum (CP250) proliferation (AID 504320); note: potency is the fitted concentration of half-maximal effect;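 for activity change, negative = inhibition: plate controls were DMSO vehicle for no effect and 0.29 µM artemisinin control for full effect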
# Method in brief: as §1
# [4] = biological target: Cytochrome P450 2C9 (Homo sapiens) (UniProt P11712); assay: qHTS Assay for Inhibitors and Substrates of Cytochrome P450 2C9 (AID 883); conditions: recombinant CYP2C9, luciferin-H luminescence, 60 min; activity change, negative = inhibition: at 57.1 µM (top of the series); note: % is set by controls: 0 for no effect and ±100 for the full control effect; nearly all actives have a fitted effect of over 60% in size
# Method in brief: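 A luminogenic readout tracked human CYP2C9 (10nM) converting deoxyluciferin (100uM, at KM) in 25mM KPO4 during 60 min at 37C with regenerated NADPH. Values normalized to 57uM sulphaphenazole as complete inhibition.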
# [5] = biological target: Cytochrome P450 2C19 (Homo sapiens) (UniProt P33261); assay: qHTS Assay for Inhibitors and Substrates of Cytochrome P450 2C19 (AID 899); note: top concentration of the series differs between compounds; % is set by controls: 0 for no effect and ±100 for the full control effect; nearly all actives have a fitted effect of over 60% in size
# Method in brief: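 NADPH-dependent conversion of Luciferin-H EGE (10uM, at KM) by 5nM enzyme in 50mM KPO4, 60 min at 37C following 10 min compound preincubation. Stopped with luciferin detection buffer; luminescence read after 20 min.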
# [6] = qHTS for Inhibitors of Plasmodium falciparum (GB4) proliferation (AID 504315); note: potency is the fitted concentration of half-maximal effect;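 for activity change, negative = inhibition: 0% = DMSO vehicle and -100% = 0.29 µM artemisinin control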; for all read-outs here: nearly all actives have a fitted effect of over 50% in size; conditions: P. falciparum GB4 in erythrocytes, SYBR Green DNA, 72 h; for Potency: activity change, negative = inhibition: at 6.7 µM (top of the series)
# Method in brief: as §1
# [7] = qHTS for Inhibitors of Plasmodium falciparum (7G8) proliferation (AID 504316); note: nearly all actives have a fitted effect of over 65% in size; note: potency is the fitted concentration of half-maximal effect;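 for activity change, negative = inhibition: 0% = DMSO vehicle and -100% = 0.29 µM artemisinin full kill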; conditions: P. falciparum 7G8 in erythrocytes, SYBR Green DNA, 72 h; activity change, negative = inhibition: at 6.7 µM (top of the series)
# Method in brief: as §1
# Tags give direction and shape of the fitted curve.
# Chain of UniProt P33261 (P33261 whole entry, looked up): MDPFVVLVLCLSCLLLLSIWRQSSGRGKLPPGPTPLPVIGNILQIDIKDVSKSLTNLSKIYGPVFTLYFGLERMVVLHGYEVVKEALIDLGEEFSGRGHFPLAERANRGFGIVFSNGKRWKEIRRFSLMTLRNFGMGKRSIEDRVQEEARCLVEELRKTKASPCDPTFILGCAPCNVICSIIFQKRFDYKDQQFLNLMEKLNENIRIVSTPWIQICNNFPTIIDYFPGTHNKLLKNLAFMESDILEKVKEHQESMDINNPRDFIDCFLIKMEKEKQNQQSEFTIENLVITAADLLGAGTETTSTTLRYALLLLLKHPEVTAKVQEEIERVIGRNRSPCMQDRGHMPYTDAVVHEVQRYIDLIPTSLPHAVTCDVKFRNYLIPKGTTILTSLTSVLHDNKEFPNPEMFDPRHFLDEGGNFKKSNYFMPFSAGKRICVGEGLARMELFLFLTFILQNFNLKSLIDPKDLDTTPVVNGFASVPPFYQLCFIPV
# Chain of UniProt P11712 (P11712 whole entry, looked up): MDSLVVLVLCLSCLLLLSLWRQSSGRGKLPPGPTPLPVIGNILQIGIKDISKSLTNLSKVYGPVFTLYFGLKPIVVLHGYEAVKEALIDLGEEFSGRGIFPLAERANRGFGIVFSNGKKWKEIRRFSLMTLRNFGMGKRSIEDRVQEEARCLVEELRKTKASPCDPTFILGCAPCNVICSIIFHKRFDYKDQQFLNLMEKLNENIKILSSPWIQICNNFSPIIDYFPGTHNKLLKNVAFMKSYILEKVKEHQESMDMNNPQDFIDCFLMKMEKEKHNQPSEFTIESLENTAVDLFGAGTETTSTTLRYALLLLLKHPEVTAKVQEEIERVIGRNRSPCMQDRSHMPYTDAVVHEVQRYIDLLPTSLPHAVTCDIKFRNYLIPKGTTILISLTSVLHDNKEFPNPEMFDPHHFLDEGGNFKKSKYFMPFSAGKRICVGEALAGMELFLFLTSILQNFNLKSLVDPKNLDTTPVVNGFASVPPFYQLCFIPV
compound,measurement,setting,value
CC[C@@H](C)CN1C(=O)N[C@@H](c2ccccc2)C(C(C)=O)=C1C,"activity, negative = inhibition",[1],inactive: 2.45% [at 1.12 µM]
same,Potency,[2],inactive
Cc1noc(C)c1S(=O)(=O)N1CCc2nc(COc3ccccc3)c3c(c2C1)CO[C@@H](C)C3,Potency,[1],inactive
same,Potency,[2],"inconclusive [inhibitor, partial curve, poor fit]"
CC(CCC(=O)OC[C@H]1O[C@H](C#Cc2ccccc2)C=C[C@H]1Oc1ccc(C)cc1)=NO[C@H](C)c1cn([C@@H]2COC[C@@H]2O)nn1,"activity, negative = inhibition",[1],inconclusive: -14.3% [inhibitor]
same,Potency,[2],"inconclusive [activator, full curve]"
COc1cc(CO[C@H]2C=C[C@@H](c3ccccc3)O[C@H]2CO)cc(OC)c1,Potency,[1],"inconclusive [inhibitor, single point]"
same,Potency,[2],"inconclusive [inhibitor, partial curve, poor fit]"
COCCN1C(=O)N[C@@H](c2cccs2)C(C(C)=O)=C1C,"activity, negative = inhibition",[1],inactive: 1.29% [at 1.12 µM]
same,Potency,[2],inactive
COc1cccc([C@@H](NC(=O)C(F)(F)F)[C@@H]2CCCC=C2c2ccccc2)c1,Potency,[1],"inconclusive [inhibitor, single point]"
same,Potency,[2],"inconclusive [inhibitor, partial curve, poor fit]"
C[C@@H](ON=C1[C@H]2CCn3c(=O)n(-c4ccccc4)c(=O)n3[C@@H]2[C@H](O)[C@@H]2O[C@H]12)c1cn([C@H](CO)Cc2ccccc2)nn1,Potency,[1],inactive
same,Potency,[2],inactive
CC1(OC(=O)CCc2ccccc2)C(=O)C=C2C=C(c3ccc(C#N)cc3)N(C(CO)CO)C=C2C1=O (stereo not drawn),Potency,[1],"inconclusive [inhibitor, single point]"
same,Potency,[2],inactive
Cc1noc(C)c1S(=O)(=O)N1CCc2nc(-c3ccccc3)c3c(c2C1)CO[C@@H](C)C3,Potency,[1],"inconclusive [inhibitor, partial curve, poor fit]"
same,Potency,[2],"inconclusive [inhibitor, partial curve]"
COCCN1C(=O)C2=C(C1=O)C1N(C)c3ccccc3[C@@]13C[C@@H](CO)N(S(=O)(=O)c1ccc(OC)cc1)C3=N2 (stereo partly drawn),Potency,[1],"inconclusive [inhibitor, single point]"
same,Potency,[2],inactive
CC(=O)OC[C@H]1O[C@H](CC=NO[C@@H](C)c2cn([C@H](CO)Cc3ccccc3)nn2)C=C[C@@H]1OC(C)=O,Potency,[1],inactive
same,Potency,[2],inactive
C#CCCOC(=O)N1C2=NC(C(=O)OC)=C(C(=O)OC)[C@@H]3N(C)c4ccccc4[C@]23C[C@H]1C(=O)OC,Potency,[1],inactive
same,Potency,[2],inactive
COC(=O)[C@@H]1[C@@H](c2cccc(C(F)(F)F)c2)NC(=O)N(Cc2ccccc2)[C@@H]1C,Potency,[1],inactive
same,Potency,[2],"inconclusive [inhibitor, single point]"
C[C@H](O)CON1C(=O)c2ccccc2C1=O,Potency,[1],inactive
same,Potency,[2],"inconclusive [activator, full curve, poor fit]"
C=CCNC(=O)N1CCc2nc(-c3ccccc3)c3c(c2C1)CO[C@@H](C)C3,Potency,[1],"inconclusive [inhibitor, partial curve, poor fit]"
same,Potency,[2],"inconclusive [inhibitor, single point]"
COC(=O)C(C(=O)OC)[C@@H]1c2ccccc2[C@H]2C(=C[C@@H](C)[C@H]3C(=O)N(c4ccccc4)C(=O)[C@H]32)N1C(=O)OC,Potency,[1],"inconclusive [inhibitor, single point]"
same,Potency,[2],inactive
O=S(=O)(CCc1ccccc1)c1nnnn1C1CCCCC1,Potency,[1],"inconclusive [inhibitor, partial curve, poor fit]"
same,Potency,[2],"inconclusive [inhibitor, single point]"
same,Potency,[3],"inconclusive [inhibitor, single point]"
COc1cc2c(cc1OC)C1OC(c3ccsc3)(C2)Oc2cc(C)oc(=O)c21 (stereo not drawn),Potency,[1],inactive
same,Potency,[2],inactive
COC(=O)CCC(=O)OC1(C)C(=O)C=C2C=C(C3CC3)N(Cc3ccc4c(c3)OCO4)C=C2C1=O (stereo not drawn),Potency,[1],"inconclusive [inhibitor, partial curve]"
same,Potency,[2],"inconclusive [inhibitor, single point]"
same,Potency,[3],inactive
C=CC1=C2C=C(C3CC3)N(CCCN(CC)CC)C=C2C(=O)C(C)(OC(=O)c2ccco2)C1=O (stereo not drawn),"activity, negative = inhibition",[1],inactive: -0.394% [at 1.12 µM]
same,Potency,[2],inactive
CCCCC1=CC2=C(c3ccco3)C(=O)C(C)(OC(=O)c3ccc(OC)cc3)C(=O)C2=CN1Cc1ccc2c(c1)OCO2 (stereo not drawn),Potency,[1],"inconclusive [inhibitor, partial curve, poor fit]"
same,Potency,[2],"inconclusive [inhibitor, single point] and inactive"
CCCCc1nc2c(c3c1C[C@H](C)OC3)CN(C(=O)NCCc1c[nH]c3ccccc13)CC2,Potency,[1],"inconclusive [inhibitor, partial curve, poor fit]"
same,Potency,[2],inactive
CCCCc1nc2c(c3c1C[C@H](C)OC3)CN(C(=O)C1CCCCC1)CC2,Potency,[1],"inconclusive [inhibitor, partial curve, poor fit]"
same,Potency,[2],"inconclusive [inhibitor, single point] and inactive"
CC(=O)OC[C@H]1O[C@H](C#Cc2ccccc2Cl)C=C[C@H]1OC(C)=O,Potency,[1],inactive
same,Potency,[2],inactive
COC(=O)CCCC1=CC2=C(c3ccccc3)C(=O)C(C)(OC(=O)C3CCCC3)C(=O)C2=CN1CCCOC(C)C (stereo not drawn),"activity, negative = inhibition",[1],inactive: 1.19% [at 1.12 µM]
same,Potency,[2],"inconclusive [inhibitor, single point]"
COC(=O)CCCC1=CC2=CC(=O)C(C)(OC(=O)c3cccs3)C(=O)C2=CN1CCCOC(C)C (stereo not drawn),Potency,[1],inactive
same,Potency,[2],"inconclusive [inhibitor, single point] and inactive"
N#CCCCSc1nnnn1-c1cc(C(F)(F)F)cc(C(F)(F)F)c1,Potency,[1],"inconclusive [inhibitor, partial curve, poor fit]"
same,Potency,[2],"inconclusive [inhibitor, single point]"
same,Potency,[3],"inconclusive [inhibitor, partial curve, poor fit]"
COc1ccc(C(=O)CC(=O)c2c(O)cc(OC)cc2OC)cc1,"activity change, negative = inhibition",[4],inactive: -6.49% [at 11.4 µM]
Cc1c(O)ccc2c1OCO2,Potency,[5],inactive
CC1=CC[C@@H](C)O[C@@]2(C1)C(=O)Nc1ccccc12,Potency,[2],"inconclusive [inhibitor, partial curve]"
COC(=O)C1=C(C(=O)OC)[C@@H]2N(C)c3ccc(OC)cc3[C@@]23C[C@@H](C(=O)OC)N(C(=O)c2cccs2)C3=N1,"activity change, negative = inhibition",[6]; at 6.7 µM (top of the series),inactive: 11.1%
COc1cc2c(cc1OC)[C@@H]1O[C@](CCCCN3C(=O)c4ccccc4C3=O)(C2)Oc2c1c(=O)oc1ccc(F)cc21,Potency,[6],"inconclusive [inhibitor, partial curve, poor fit]"
same,Potency,[7],"inconclusive [inhibitor, partial curve, poor fit]"
same,Potency,[2],"inconclusive [inhibitor, partial curve]"
CCC(C)CN1C(=O)NC(c2ccccc2)C(C(=O)OC)=C1C (stereo not drawn),Potency,[6],inactive
same,Potency,[7],inactive
COC(=O)[C@H]1[C@@H](c2ccccc2)NC(=O)O[C@@H]1C,Potency,[6],inconclusive [inhibitor]
same,Potency,[7],"inconclusive [inhibitor, single point]"
CC1(OC(=O)C2CCCC2)C(=O)C=C2C=C(c3ccsc3)N(c3ccccc3)C=C2C1=O (stereo not drawn),Potency,[6],"inconclusive [activator, partial curve, poor fit]"
same,Potency,[7],inactive
COC(=O)C1=C(C(=O)OC)[C@@H]2N(C)c3ccccc3[C@@]23CCC(=O)N(CC(C)C)C3=N1,Potency,[6],inactive
same,Potency,[7],inactive
same,Potency,[2],"inconclusive [inhibitor, single point]"
C[C@H]1CC[C@H]2C(=O)N(Cc3ccc(Cl)cc3)C[C@@H](O)CN2[C@H]1c1ccc(Br)cc1,Potency,[6],"inconclusive [inhibitor, single point]"
same,Potency,[7],active: 1690 nM
COC(=O)C1=C(C(=O)OC)[C@@H]2N(C)c3ccc(OC)cc3[C@@]23C[C@@H](C(=O)OC)N(S(=O)(=O)c2ccc(Br)cc2)C3=N1,Potency,[6],"inconclusive [inhibitor, partial curve]"
same,Potency,[7],active: 1510 nM
same,Potency,[2],"inconclusive [inhibitor, single point]"
COC(=O)C1=C(C(=O)OC)[C@@H]2N(C)c3ccc(OC)cc3[C@@]23C[C@@H](C(=O)OC)N(S(=O)(=O)c2ccc(C#N)cc2)C3=N1,Potency,[6],"inconclusive [inhibitor, single point]"
same,Potency,[7],active: 1690 nM
same,Potency,[2],"inconclusive [inhibitor, single point]"
COC(=O)C1=C(C(=O)OC)[C@@H]2N(C)c3ccccc3[C@@]23C[C@@H](C(=O)OC)N(S(=O)(=O)c2ccc4c(c2)OCCN4C)C3=N1,Potency,[6],active: 2390 nM
same,Potency,[7],"inconclusive [inhibitor, single point]"
same,Potency,[2],"inconclusive [inhibitor, single point]"
CCOC(=O)CN1C(=O)C2(CC(C)=C[C@@H](C)O2)c2c(Br)cccc21 (stereo partly drawn),Potency,[6],"inconclusive [inhibitor, single point]"
same,Potency,[7],inactive
COC/C=C/C1=CC2=CC(=O)C(C)(OC(=O)c3cnc4ccccc4n3)C(=O)C2=CN1C(CO)CO (stereo not drawn),Potency,[6],inactive
same,Potency,[7],inactive

# — PubChem BioAssay (NCATS)
